# From PubChem BioAssay AID1379 (National Center for Advancing Translational Sciences (NCATS), 2008)
# About 560 (0.28%) of roughly 200,000 compounds were called active. The shares of active, inactive and inconclusive entries below differ from those in the screen. Calls follow the shape of the dose curve; as a rule, active = well fitted inhibition curve with a large enough effect; inconclusive = small, poorly fitted or top-dose-only effect; inactive = flat fitted curve, though single readings scatter. No potency is given beside an inconclusive call; the fits are too rough.
# Target: Luciferin 4-monooxygenase (Photuris pensylvanica) (UniProt Q27757)
# Experiment: Counterscreen for Luciferase (Kinase-Glo TM) Inhibition; also: nearly all actives have a fitted effect of over 60% in size
# Conditions: ATP luminescence, 8 min; series mostly up to 38.3 µM; activity change, negative = inhibition: at the top concentration
# Procedure, shortened: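 Compound is pinned into ATP-containing buffer (10 uM ATP, imidazole pH 7.2, 7 mM MgCl2). Kinase-Glo luciferase reagent is then added. Light output is recorded following an 8-min room-temperature incubation.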
# % is scaled to controls: 0 for no effect and ±100 for the full control effect; potency is read from the fitted curve at half-maximal effect; tags tell the direction and shape of the fitted curve.
Compound,Potency,"activity change, negative = inhibition"
COC(=O)c1sccc1NC(=O)Nc1ccccc1F,active: 12.6 µM,
CCn1cnc2cc(NCc3nc4ccccc4n3C)ccc21,"inconclusive [inhibitor, partial curve]",
CN(C(=O)CCl)C1CCCc2ccccc21 (configuration not stated),,inactive: -0.941%
CN(C)c1ccc(Nc2c3c4c(cccc4n(C)c2=O)C(=O)c2ccccc2-3)cc1,"inconclusive [inhibitor, single point]",
Cn1c(NC(=O)c2cccnc2)nc2ccccc21,"inconclusive [inhibitor, single point]",
O=C(/C=C\Nc1ccc2c(c1)OCO2)c1ccccn1,active: 14.1 µM,
N/C(=N\OC(=O)c1ccc(Cl)cc1)c1ccccn1,active: 6.31 µM,
CCOc1ccc(N=Cc2c(O)c3ccccc3oc2=O)cc1,"inconclusive [inhibitor, partial curve]",
Cn1nc(C(=O)Nc2ccc3c(c2)OCCO3)cc1C(=O)O,active: 11.2 µM,
O=C(Oc1coc(CSc2ncccn2)cc1=O)c1ccccc1[N+](=O)[O-],"inconclusive [inhibitor, single point]",
O=C(NC1=NC2CCCCC2N1)c1ccccc1 (configuration not stated),"inconclusive [inhibitor, partial curve]",
COc1ccc(C(=O)/C=C/Nc2ccccn2)cc1,active: 11.2 µM,
COC(=O)c1ccc(-c2ccco2)n1Cc1nc(-c2ccc(OC)c(OC)c2)oc1C,,inactive: -3.37%
Cc1ccc(C(=O)n2c(=S)nc3ccccn32)cc1,"inconclusive [inhibitor, partial curve]",
Nc1ncnc2c1ncn2[C@@H]1O[C@H](COP(=O)(O)O)[C@@H](O)[C@@H]1O,active: 3.98 µM,
CCOc1ccc(N=Cc2c(C)[nH]n(-c3nc4ccccc4[nH]3)c2=O)cc1,active: 8.91 µM,
Cc1ccc(-n2[nH]c(C)c(/C=N/N3C(=O)c4cccc5cccc(c45)C3=O)c2=O)cc1,"inconclusive [inhibitor, single point]",
Cc1cccc(C#Cc2ccccc2)n1,active: 12.6 µM,
O=C(Oc1ccc(-c2cnc3ccccc3n2)cc1)c1ccco1,"inconclusive [inhibitor, single point]",
Oc1[nH]c2ccccc2c1C=Nc1ccc2c(c1)OCO2,"inconclusive [inhibitor, partial curve]",
Nc1cccc(-c2nc3ccc(N)cc3s2)c1,active: 12.6 µM,

Compound,Potency,"activity change, negative = inhibition"
COc1ccc(N/N=C(/N=Nc2nc(C)cc(=O)[nH]2)c2ccccc2)cc1,active: 8.91 µM,
Cc1cc(C)c2nc(N3CCCN(C(=O)c4ccco4)CC3)c(C#N)cc2c1,,inactive: -2.17%
CC(=O)c1sc(NC(=O)c2ccc(C(C)(C)C)cc2)nc1C,,inactive: -2.61%
Cc1ccc(C(=O)Nc2cnc3ccccn3c2=O)cc1,"inconclusive [inhibitor, single point]",
O=c1c2ccccc2cnn1-c1nc2ccccc2[nH]1,active: 2 µM,
O=C(c1ccc(S(=O)(=O)c2ccc(F)cc2)c([N+](=O)[O-])c1)N1CCCCCC1,,inactive: -1.75%
Fc1ccc(-c2nc(-c3cccs3)[nH]c2-c2ccc(F)cc2)cc1,,inactive: -0.096%
O=C(Nc1ccc(-c2cn3ccccc3n2)cc1)c1ccco1,active: 10 µM,
CN1C=CC(=C2C(=O)c3ccccc3C2=O)C=C1,"inconclusive [inhibitor, single point]",
Cc1[nH]n(-c2ccccc2)c(=O)c1/C=N/c1nn[nH]n1,"inconclusive [inhibitor, single point]",
Cc1nc(CS(=O)(=O)c2ccc(Cl)cc2)cc(N2CCOCC2)n1,,inactive: 3.3%
CC(C(=O)O)c1ccc(N2Cc3ccccc3C2=O)cc1 (configuration not stated),"inconclusive [inhibitor, partial curve]",
Cc1ccc2nc(NC(=O)c3ccco3)sc2c1,"inconclusive [inhibitor, single point]",
O=C1Nc2ccc(Br)cc2/C1=N/N=C/C1=C(N2CCOCC2)C(=C\c2ccccc2)/CC1,"inconclusive [inhibitor, partial curve]",
Oc1c(Br)cc2oc3c(c2c1CNCc1ccccc1)CCCC3,,inactive: 2.58%
Cc1nc2nc(-c3ccc(Cl)cc3)cn2nc1C,"inconclusive [inhibitor, partial curve]",
CCOC(=O)c1sc(NC(=O)c2sccc2C)cc1C,active: 11.2 µM,
CN(C)CCCn1c(NC(=O)C2CCCCC2)nc2ccccc21,,inactive: -2.45%
O=c1c(=NNc2ccccc2Cl)c(=O)c2ccccc12,active: 6.31 µM,
Cn1c(CNc2ccccc2)nc2ccccc21,"inconclusive [inhibitor, partial curve]",
Cc1c(NC(=O)Nc2cccs2)cccc1[N+](=O)[O-],,inactive: 0.393%

Compound,Potency,"activity change, negative = inhibition"
Cc1cccc(C(=O)NC(=S)NNC(=O)c2ccc(Cl)cc2)c1,,inactive: -2.09%
Cc1nnc(SCC(=O)Nc2ccc3c(c2)OCO3)n(N)c1=O,,inactive: -2.66%
Cc1[nH]n(-c2nc(-c3ccc(Cl)cc3)cs2)c(=O)c1N=Nc1ccc(O)cc1,,inactive: -1.79%
O=C(O)CCC(=O)N1CCN(c2ccccn2)CC1,,inactive: -2.82%
Cc1cc(NC(=O)c2ccoc2C)no1,"inconclusive [inhibitor, single point]",
CC(=O)Nc1ccc(NC2=C/C(=N/S(=O)(=O)c3cccs3)c3ccccc3C2=O)cc1,"inconclusive [inhibitor, single point]",
O=c1c(-c2ccccc2)coc2cc(O)ccc12,"inconclusive [inhibitor, partial curve]",
CC(=O)c1ccc(N=Nc2ccc(N(C)C)cc2)cc1,"inconclusive [inhibitor, partial curve]",
CN(Cc1cccs1)C(=O)CCCc1c[nH]c2ccccc12,,inactive: -1.82%
COc1ccc(NC(=O)Nc2ccccc2SC)cc1,active: 10 µM,
Cc1nc(N/N=C/c2ccccn2)sc1C,active: 8.91 µM,
CCCCN1C=CC(=C2N=c3cccc([N+](=O)[O-])c3=N2)C=C1,"inconclusive [inhibitor, partial curve]",
N/C(=N\OC(=O)c1cccs1)c1cccc(Br)c1,"inconclusive [inhibitor, single point]",
O=C(N/N=C/c1c(O)n(-c2ccc(Cl)cn2)c(=O)c2ccccc12)C1CC1,,inactive: 0.98%
Clc1ccc(-c2nc3ccncc3[nH]2)cc1,"inconclusive [inhibitor, partial curve]",
CCOC(=O)c1c(N)sc(C(=O)Nc2ccc3c(c2)OCO3)c1C,active: 4.47 µM,
Cc1ccnc(NC(=O)c2ccc(N3C(=O)CCC3=O)cc2)c1,,inactive: -21.6%
Cc1ccc(C(=O)COC(=O)c2cccs2)cc1,"inconclusive [inhibitor, single point]",
CCOc1ccc(NC(=O)Nc2cccc(C(=O)O)c2)cc1,"inconclusive [inhibitor, partial curve]",
c1ccc(CCNc2ncnc3sccc23)nc1,"inconclusive [inhibitor, single point]",
COc1ccc(C2=Nn3c(nnc3-c3ccncc3)SC2)cc1OC,,inactive: -2.44%

Compound,Potency,"activity change, negative = inhibition"
COc1ccc(C)c2sc(=NC(=O)c3ccccc3)n(C)c12,active: 12.6 µM,
Fc1ccccc1CSc1nc2ccccc2[nH]1,"inconclusive [inhibitor, single point]",
Cc1ccc(C(=O)Nc2ncc(C)s2)o1,"inconclusive [inhibitor, partial curve]",
Cc1ccc(-c2noc(-c3cccs3)n2)cc1,"inconclusive [inhibitor, partial curve]",
O=C(Nc1ccc(-c2nc3ccccc3[nH]2)cc1)c1ccco1,"inconclusive [inhibitor, single point]",
O=C(/C=C\Nc1ccccn1)c1ccccc1,"inconclusive [inhibitor, partial curve]",
O=C(N=c1nc2ccccn2s1)c1ccccc1,active: 2.51 µM,
COc1ccc(C(=O)/C=C/Nc2cccc(O)c2)cc1,"inconclusive [inhibitor, partial curve]",
O=C(c1cccs1)c1ccc(-c2cccs2)s1,active: 7.94 µM,
O=C1c2ccccc2-c2onc3ccc(N4CCCC4)c1c23,"inconclusive [inhibitor, single point]",
Cc1cc(C(=O)COC(=O)c2cccnc2Cl)c(C)n1CC1CCCO1 (configuration not stated),active: 10 µM,
COc1cccc(NC(=O)c2cnsn2)c1,"inconclusive [inhibitor, single point]",
COc1cccc(C(=O)Nc2ccc(C(F)(F)F)n(C)c2=O)c1,"inconclusive [inhibitor, partial curve]",
COc1ccc2c(c1OC)C(=O)OC2Nc1nc(-c2cc3ccccc3oc2=O)cs1 (configuration not stated),"inconclusive [inhibitor, single point]",
Cc1cc(SCC(=O)c2ccc(Br)cc2)cc(C)[o+]1,,inactive: 0.575% [at 7.66 µM]
N/C(=N\OC(=O)c1ccc2c(c1)OCO2)c1ccc(Cl)cc1,"inconclusive [inhibitor, partial curve]",
O=C(Nc1ccccc1)Nc1ccccc1,"inconclusive [inhibitor, single point]",
O=C(N=Nc1c(O)[nH]c2ccccc12)c1ccc2c(c1)OCO2,active: 10 µM,
Cc1nc(-c2coc3cc(O)c(C)cc3c2=O)cs1,"inconclusive [inhibitor, partial curve]",
